Several values for one entry are separate records, joined by “and”; a condition that tells them apart may be missing. Equal entries are not always repeated. The inconclusive results got no clear call from the source; some entries with a clear call stand among them for comparison. For some of these results: Potencies beside an inconclusive call are fits to weak or partial responses and may not hold up. More than one record can exist for a structure, and the calls need not agree. Activity calls are given as the source filed them. Calls come from the whole dose curve; as a rule, active = well fitted curve in the direction sought with a large enough effect; inconclusive = small, poorly fitted or top-dose-only effect, or another doubt; inactive = no such curve, though single readings can be large; an effect the other way counts as inactive or inconclusive.
How the values were obtained:
HEK293 = assay: Cytotoxic Profiling of Annotated Libraries Using Quantitative High-Throughput Screening (AID 1296008); details: Five cell lines viability, CellTiter-Glo ATP luminescence, 48-72 h; max response: stronger effect = lower value; note: nearly all actives have a fitted effect of over 60% in size
In short: (§1)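 Cytotoxicity was measured as CellTiter-Glo ATP luminescence, read after 10 min at room temperature. Compound treatment of the cells lasted 48 or 72 hr at 37 degrees Celsius in a qHTS format.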

HaCat = assay: as above; details: Five cell lines viability, CellTiter-Glo ATP luminescence, 48-72 h; max response: stronger effect = lower value
In short: as §1

KB-3-1 = assay: as above; details: Five cell lines viability, CellTiter-Glo ATP luminescence, 48-72 h; max response: stronger effect = lower value
In short: as §1

UISO = assay: qHTS assay to identify novel small-molecules to repurpose for Merkel cell carcinoma treatment (AID 1296009); details: MCC and control cell lines, CellTiter-Glo viability, 72 h; series mostly up to 46 µM; note: nearly all actives have a fitted effect of over 60% in size
In short: (§2)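 After compound transfer in DMSO, plates were kept 72 hr at 37 degree celsius. Luminescent ATP signal from CellTiter-Glo served as viability measure, normalized against DMSO and no-cell controls.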

WaGa = assay: as above; details: MCC and control cell lines, CellTiter-Glo viability, 72 h; series mostly up to 46 µM
In short: as §2

NIH3T3 = assay: Cytotoxic Profiling of Annotated Libraries Using Quantitative High-Throughput Screening (AID 1296008); details: Five cell lines viability, CellTiter-Glo ATP luminescence, 48-72 h; max response: stronger effect = lower value; note: nearly all actives have a fitted effect of over 60% in size
In short: as §1

MKL-1 = assay: qHTS assay to identify novel small-molecules to repurpose for Merkel cell carcinoma treatment (AID 1296009); details: MCC and control cell lines, CellTiter-Glo viability, 72 h; series mostly up to 46 µM; note: nearly all actives have a fitted effect of over 60% in size
In short: as §2

HeLa = assay: Primary qHTS to identify gynecologic anti-cancer compounds using libraries of approved drugs and bioactive compounds (AID 1345084); details: Gynecologic cancer cell panel viability, ATPlite luminescence, 48 h; series mostly up to 57.5 µM; note: nearly all actives have a fitted effect of over 55% in size
In short: (§3)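 In this quantitative HTS, cell killing is estimated from loss of ATP-dependent luciferase light. Cells see five compound concentrations over a 48 h exposure.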

SKOV3 = assay: as above; details: Gynecologic cancer cell panel viability, ATPlite luminescence, 48 h; series mostly up to 57.5 µM
In short: as §3

MCC-13 = assay: qHTS assay to identify novel small-molecules to repurpose for Merkel cell carcinoma treatment (AID 1296009); details: MCC and control cell lines, CellTiter-Glo viability, 72 h; series mostly up to 46 µM; note: nearly all actives have a fitted effect of over 60% in size
In short: as §2

MCC-26 = assay: as above; details: MCC and control cell lines, CellTiter-Glo viability, 72 h; activity change, negative = cytotoxicity: at 46 µM (top of the series)
In short: as §2

C33A = assay: Primary qHTS to identify gynecologic anti-cancer compounds using libraries of approved drugs and bioactive compounds (AID 1345084); details: Gynecologic cancer cell panel viability, ATPlite luminescence, 48 h; series mostly up to 57.5 µM; note: nearly all actives have a fitted effect of over 55% in size
In short: as §3

CASKI = assay: as above; details: Gynecologic cancer cell panel viability, ATPlite luminescence, 48 h; series mostly up to 57.5 µM
In short: as §3

Es-2 = assay: as above; details: Gynecologic cancer cell panel viability, ATPlite luminescence, 48 h; series mostly up to 57.5 µM
In short: as §3

Hek293T = assay: as above; details: Gynecologic cancer cell panel viability, ATPlite luminescence, 48 h, control line for the selectivity index; series mostly up to 57.5 µM
In short: as §3

OV90 = assay: as above; details: Gynecologic cancer cell panel viability, ATPlite luminescence, 48 h; series mostly up to 57.5 µM
In short: as §3

MKL-2 = assay: qHTS assay to identify novel small-molecules to repurpose for Merkel cell carcinoma treatment (AID 1296009); details: MCC and control cell lines, CellTiter-Glo viability, 72 h; activity change, negative = cytotoxicity: at 46 µM (top of the series); note: nearly all actives have a fitted effect of over 60% in size
In short: as §2

JEG-3 = assay: Primary qHTS to identify gynecologic anti-cancer compounds using libraries of approved drugs and bioactive compounds (AID 1345084); details: Gynecologic cancer cell panel viability, ATPlite luminescence, 48 h; series mostly up to 57.5 µM; note: nearly all actives have a fitted effect of over 55% in size
In short: as §3

PA-1 = assay: as above; details: Gynecologic cancer cell panel viability, ATPlite luminescence, 48 h; series mostly up to 57.5 µM
In short: as §3

CAOV3 = assay: as above; details: Gynecologic cancer cell panel viability, ATPlite luminescence, 48 h; series mostly up to 57.5 µM
In short: as §3
% is set by controls: 0 for no effect and ±100 for the full control effect; potency is the fitted concentration of half-maximal effect; tags give direction and shape of the fitted curve.

Compound: C[C@@H](O[C@H]1OCCN(Cc2n[nH]c(=O)[nH]2)[C@@H]1c1ccc(F)cc1)c1cc(C(F)(F)F)cc(C(F)(F)F)c1
- Potency (HEK293): active: 20.9 µM
- max response (HaCat): inactive: -38.5%
- Potency (KB-3-1): active: 26.4 µM
- Potency (UISO): inconclusive: 33.2 µM [inhibitor, single point]
- Potency (WaGa): inactive

Compound: CCC(C)SSc1ncc[nH]1 (stereo not given)
- Potency (HEK293): active: 13.2 µM
- Potency (KB-3-1): inconclusive: 37.2 µM [inhibitor, single point]
- Potency (UISO): inconclusive: 11.8 µM [inhibitor, full curve]
- Potency (WaGa): active: 23.5 µM

Compound: COC(=O)C1=C(C)NC(C)=C(C(=O)OC)C1c1ccccc1[N+](=O)[O-]
- max response (HEK293): inactive: -14.4%
- Potency (KB-3-1): inconclusive: 4.11 µM [inhibitor, single point]
- Potency (NIH3T3): inconclusive: 23.7 µM [inhibitor, single point]
- Potency (MKL-1): inconclusive: 21.1 µM [inhibitor, single point]
- Potency (UISO): inconclusive: 15 µM [inhibitor, single point]
- Potency (WaGa): inconclusive: 29.9 µM [inhibitor, single point]
- Potency (HeLa): inconclusive: 35.5 µM [cytotoxic, single point]
- Potency (SKOV3): inactive

Compound: CC(=O)Nc1ccc([C@H](C)C(=O)Nc2ncc(C(C)C)s2)cc1
- Potency (HEK293): active: 4.69 µM and active: 4.11 µM
- Potency (NIH3T3): active: 8.33 µM and active: 9.2 µM
- Potency (MCC-13): inconclusive: 7.43 µM [inhibitor, full curve]
- Potency (MCC-26): inconclusive: 8.33 µM [inhibitor, full curve]
- Potency (MKL-1): inconclusive: 8.33 µM [inhibitor, full curve]
- Potency (UISO): active: 7.43 µM
- Potency (WaGa): inconclusive: 7.43 µM [inhibitor, full curve]
- Potency (C33A): active: 20 µM
- Potency (CASKI): inconclusive: 39.8 µM [cytotoxic, single point]
- Potency (Es-2): active: 14.1 µM
- Potency (HeLa): inconclusive: 22.4 µM [cytotoxic, single point]
- Potency (Hek293T): active: 15.8 µM
- Potency (OV90): inconclusive: 7.94 µM [cytotoxic, full curve]

Compound: Cc1[nH]c(=O)c(C#N)cc1-c1ccncc1
- Potency (HEK293): inconclusive: 37.2 µM [inhibitor, single point]
- max response (NIH3T3): inactive: 0.936%
- outcome (NIH3T3): inactive
- Potency (MKL-1): inconclusive: 8.33 µM [inhibitor, full curve]
- Potency (MKL-2): inconclusive: 10.5 µM [inhibitor, full curve, poor fit]
- Potency (UISO): inconclusive: 18.7 µM [inhibitor, partial curve, poor fit] and inactive
- Potency (WaGa): inconclusive: 33.2 µM [inhibitor, single point] and inactive
- Potency (Hek293T): inactive
- Potency (SKOV3): inactive

Compound: O=C1NC(=O)/C(=C/c2ccc3c(c2)OC(F)(F)O3)S1
- Potency (HEK293): inconclusive: 29.1 µM [inhibitor, single point]
- Potency (KB-3-1): inconclusive: 20.6 µM [inhibitor, single point]
- Potency (Es-2): inconclusive: 39.8 µM [cytotoxic, single point]
- Potency (HeLa): inconclusive: 25.1 µM [cytotoxic, single point]
- Potency (JEG-3): inconclusive: 15.8 µM [cytotoxic, partial curve, poor fit]
- Potency (OV90): inconclusive: 31.6 µM [cytotoxic, single point]
- Potency (PA-1): inconclusive: 39.8 µM [cytotoxic, single point]
- Potency (SKOV3): inactive

Compound: CC(=O)Oc1cccc2c1C(=O)c1c(OC(C)=O)cc(C(=O)O)cc1C2=O
- Potency (HEK293): inconclusive: 26.6 µM [inhibitor, single point]
- Potency (NIH3T3): inconclusive: 23.7 µM [inhibitor, single point]
- Potency (MKL-2): inactive
- Potency (CAOV3): inconclusive: 35.5 µM [cytotoxic, single point]
- Potency (CASKI): inconclusive: 31.6 µM [cytotoxic, partial curve, poor fit]
- Potency (Hek293T): inconclusive: 28.2 µM [cytotoxic, single point]
- Potency (JEG-3): inactive
- Potency (OV90): inconclusive: 17.8 µM [cytotoxic, single point]
- Potency (PA-1): inconclusive: 39.8 µM [cytotoxic, single point]
- Potency (SKOV3): inconclusive: 31.6 µM [cytotoxic, single point]

Compound: Cc1c(C)n(Cc2ccccc2)c2ccc(C(=O)OCCN(C)C)cc12
- Potency (HEK293): inconclusive: 29.9 µM [inhibitor, single point]
- Potency (NIH3T3): inconclusive: 33.5 µM [inhibitor, single point]
- Potency (MKL-2): inconclusive: 11.9 µM [inhibitor, partial curve]
- Potency (CAOV3): inconclusive: 39.8 µM [cytotoxic, single point]
- Potency (PA-1): inconclusive: 39.8 µM [cytotoxic, single point]

Compound: NC(=O)N/N=C/c1ccc([N+](=O)[O-])o1
- Potency (HEK293): inconclusive: 68.6 µM [inhibitor, partial curve, poor fit] and inconclusive: 23.7 µM [inhibitor, single point]
- Potency (NIH3T3): inconclusive: 43.3 µM [inhibitor, single point]
- Potency (MKL-1): inconclusive: 26.6 µM [inhibitor, single point]
- Potency (MKL-2): active: 15.4 µM and inconclusive: 33.5 µM [inhibitor, single point]
- Potency (UISO): inconclusive: 21.7 µM [inhibitor, partial curve]
- Potency (WaGa): active: 38.6 µM and inconclusive: 18.8 µM [inhibitor, single point]
- Potency (C33A): inconclusive: 70.8 µM [cytotoxic, single point]
- Potency (CAOV3): inconclusive: 39.8 µM [cytotoxic, partial curve, poor fit]
- Potency (CASKI): inconclusive: 70.8 µM [cytotoxic, partial curve, poor fit]
- Potency (Es-2): active: 31.6 µM
- Potency (HeLa): active: 31.6 µM and inconclusive: 25.1 µM [cytotoxic, single point]
- Potency (Hek293T): inconclusive: 31.6 µM [cytotoxic, partial curve]
- Potency (JEG-3): inconclusive: 25.1 µM [cytotoxic, partial curve] and inconclusive: 31.6 µM [cytotoxic, single point]
- Potency (OV90): inconclusive: 39.8 µM [cytotoxic, partial curve, poor fit]
- Potency (PA-1): inconclusive: 31.6 µM [cytotoxic, partial curve, poor fit]

Compound: COC(=O)Nc1nc2ccc(C(=O)C3CC3)cc2[nH]1
- Potency (HEK293): active: 0.75 µM
- Potency (NIH3T3): inconclusive: 0.75 µM [inhibitor, full curve, poor fit]
- Potency (MCC-13): active: 7.5 µM
- Potency (MCC-26): inconclusive: 7.5 µM [inhibitor, partial curve]
- Potency (MKL-1): inconclusive: 0.668 µM [inhibitor, full curve]
- Potency (MKL-2): inconclusive: 10.6 µM [inhibitor, partial curve]
- Potency (UISO): inconclusive: 1.33 µM [inhibitor, full curve]
- Potency (WaGa): inconclusive: 0.668 µM [inhibitor, full curve]
- Potency (C33A): active: 12.6 µM
- Potency (CASKI): inconclusive: 0.891 µM [cytotoxic, full curve]
- Potency (Hek293T): inconclusive: 1.26 µM [cytotoxic, full curve]
- Potency (JEG-3): active: 7.94 µM
- Potency (OV90): active: 11.2 µM
- Potency (PA-1): active: 1.12 µM
- Potency (SKOV3): active: 10 µM

Compound: O=Cc1ccc(O)c(O)c1O
- Potency (HEK293): active: 26.6 µM
- Potency (NIH3T3): inconclusive: 29.9 µM [inhibitor, single point]
- Potency (MKL-1): inconclusive: 23.7 µM [inhibitor, single point]
- Potency (UISO): inconclusive: 21.1 µM [inhibitor, single point]
- Potency (WaGa): inconclusive: 23.7 µM [inhibitor, partial curve, poor fit]
- Potency (Es-2): inactive

Compound: CN1CC(=O)N2C(Cc3c([nH]c4ccccc34)[C@H]2c2ccc3c(c2)OCO3)C1=O (stereo not given in full)
- Potency (HEK293): inconclusive: 20.9 µM [inhibitor, partial curve]
- Potency (NIH3T3): inconclusive: 26.4 µM [inhibitor, single point]
- Potency (MCC-26): inactive
- Potency (UISO): inactive

Compound: OCc1cc(C(O)CNCCCCCCOCCCCc2ccccc2)ccc1O (stereo not given)
- Potency (HEK293): inconclusive: 33.5 µM [inhibitor, single point]
- Potency (KB-3-1): inconclusive: 29.1 µM [inhibitor, single point]
- Potency (MKL-2): inconclusive: 21.1 µM [inhibitor, single point]
- Potency (CAOV3): active: 22.4 µM
- Potency (Hek293T): inconclusive: 25.1 µM [cytotoxic, partial curve, poor fit]
- Potency (OV90): inconclusive: 35.5 µM [cytotoxic, single point]
- Potency (PA-1): inconclusive: 35.5 µM [cytotoxic, single point]

Compound: CC(=O)Oc1cc2c(s1)CCN(C(C(=O)C1CC1)c1ccccc1F)C2 (stereo not given)
- Potency (HEK293): active: 2.96 µM
- Potency (NIH3T3): inconclusive: 20.9 µM [inhibitor, partial curve]
- Potency (UISO): inconclusive: 37.2 µM [inhibitor, single point]

Compound: O=C1NC(=O)C(=Cc2ccc(-c3ccc(F)cc3)o2)S1
- Potency (HEK293): inconclusive: 37.2 µM [inhibitor, single point]
- max response (NIH3T3): inactive: -13.2%
- Potency (UISO): inactive

— PubChem BioAssay (NCATS)
